# Experimental data reported in the supplement of paper PMC3334620.
# Whole data set: some 33,000 sequences, median “E-score (-0.5 to 0.5)” near -0.054, cut for the highest 2% near 0.35. The list shows a part of the results.
# Target: T1, Stb5 (UniProt P38699)
# T1 sequence: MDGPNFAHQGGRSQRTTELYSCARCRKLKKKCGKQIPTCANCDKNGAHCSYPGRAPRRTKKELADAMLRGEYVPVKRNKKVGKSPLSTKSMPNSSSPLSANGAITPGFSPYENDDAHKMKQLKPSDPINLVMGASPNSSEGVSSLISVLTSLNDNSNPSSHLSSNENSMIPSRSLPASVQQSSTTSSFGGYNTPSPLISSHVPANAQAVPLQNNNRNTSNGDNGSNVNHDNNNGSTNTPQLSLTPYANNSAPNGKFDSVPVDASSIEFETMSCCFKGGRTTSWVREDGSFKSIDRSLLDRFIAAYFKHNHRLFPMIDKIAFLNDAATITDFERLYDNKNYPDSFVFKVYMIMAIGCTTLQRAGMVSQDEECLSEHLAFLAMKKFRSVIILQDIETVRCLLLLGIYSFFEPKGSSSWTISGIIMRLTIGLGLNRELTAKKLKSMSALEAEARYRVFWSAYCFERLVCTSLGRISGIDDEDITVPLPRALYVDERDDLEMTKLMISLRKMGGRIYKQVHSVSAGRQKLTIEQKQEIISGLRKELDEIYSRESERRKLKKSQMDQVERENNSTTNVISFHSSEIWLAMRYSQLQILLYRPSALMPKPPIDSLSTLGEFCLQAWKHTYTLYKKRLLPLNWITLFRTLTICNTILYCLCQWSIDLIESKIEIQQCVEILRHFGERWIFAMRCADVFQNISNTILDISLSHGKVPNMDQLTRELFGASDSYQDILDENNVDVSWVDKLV
# Assay: PBM E-score (8-mer binding enrichment) (E-score (-0.5 to 0.5)); higher = stronger / more preferred TF binding; most listed sequences are background and not binding sites
# Details: protein concentration: 200 nM; construct: GST-full length
# Summary of the method: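 The E-score, a modified Wilcoxon-Mann-Whitney statistic, was computed by the Universal PBM Analysis Suite for every ungapped eight-base word pooled with its reverse complement. Scans behind it were normalised with masliner after bound GST-tagged yeast transcription factors were detected with fluorescent anti-GST. The proteins, at about 100-200 nM, had been applied to universal all-10-mer Agilent arrays made double-stranded by primer extension.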
row,Sequence,PBM E-score
1,CAGGGGCC,-0.0955
2,ACTCGAGA,-0.163
3,TCCGTCGA,0.282
4,GTCATCGA,-0.152
5,CTCCTCAG,-0.216
6,TCGAAACA,-0.233
7,CTTCCAGC,-0.208
8,ATGCTTTA,-0.105
9,TCCTGCGA,0.00297
10,GGCGCGCA,0.104
11,CGGAGGTA,0.434
12,AGCTTTTC,-0.0716
13,AGAGGTCG,0.0346
14,AGGTTACG,-0.0374
15,CTTGTAAC,0.0769
16,CTCGAGTA,-0.198
17,CCGTTAAG,0.176
18,GATCAGCC,-0.134
19,TGCAATAA,-0.0214
20,ATTGACGG,0.234
21,CGGTAGAA,0.224
22,CGGATTGA,0.192
23,AACGTGAC,-0.134
24,AGTTTGGG,-0.0288
25,AGCGGATC,0.263

row,Sequence,PBM E-score
1,AATCAGTG,-0.18
2,AGCAAAAC,-0.0915
3,AATGATGC,-0.0756
4,AAGTGGTC,-0.0973
5,CTGCCATC,-0.297
6,GAGGTACC,-0.00145
7,ACCCGCTA,0.0951
8,CGACACCC,0.0971
9,AGAAGTAA,-0.0838
10,ATTCTGTA,-0.186
11,AAATTATG,-0.0395
12,CATGTCCC,-0.0516
13,CGCATCTA,0.244
14,CTGCCCAA,-0.332
15,CACAGGTG,-0.135
16,GTTGACAA,0.0593
17,AACTACCC,-0.116
18,ATACGTGC,0.0328
19,AAGGTAGA,-0.0184
20,AGATTTAA,0.0536
21,CGTCCCAC,0.111
22,AATCGTAG,-0.307
23,CTAAGGCA,-0.101
24,ACACGCGC,0.0578
25,CTCGAATA,-0.0857

row,Sequence,PBM E-score
1,GAGTTGCA,0.0644
2,CCGCACAA,0.154
3,AAAGAATT,-0.151
4,ATGCACCG,0.277
5,CAGGGTAG,-0.165
6,AGTCTACG,-0.206
7,GGTCCACC,0.0438
8,AGCAACAC,-0.104
9,GTCCAGAC,-0.0488
10,AGCTATCA,-0.0424
11,GAAAGAAA,-0.022
12,CCTGCAAA,-0.153
13,CAGTGACC,-0.143
14,GCTACTGA,-0.0778
15,GTAGGGTA,-0.0932
16,ACTCCCGA,0.287
17,AACGGTAA,0.235
18,GTAAGCAC,-0.0465
19,TACAAGAA,-0.045
20,CCGGGCTA,0.19
21,CTAGTCAC,0.0235
22,TGGATTAA,-0.18
23,CGCTGACA,0.129
24,GGCTTGCA,0.0133
25,AGCCGAAA,-0.0369

row,Sequence,PBM E-score
1,CTCCCGTA,-0.107
2,AATTTACC,0.22
3,GTGCTAAC,0.208
4,CTCCTATA,-0.22
5,CCACAATC,-0.0333
6,ATCATATA,-0.125
7,AGTCCGGC,0.38
8,GAACTGAA,-0.0941
9,TAAGGACA,-0.0617
10,GCACTTAC,0.193
11,CGTGCCTC,-0.149
12,ACGTCTGA,-0.0368
13,CAGGAAGA,-0.108
14,ACATAGAG,-0.11
15,ACGGACCA,0.237
16,ACAATGCT,-0.184
17,CTGACACC,0.29
18,GATTCATA,-0.00887
19,CAAAGAGG,-0.0165
20,CAATAGCC,0.0314
21,CTAGGAGC,-0.112
22,AATCGACT,-0.21
23,CCTAGCAA,-0.129
24,TGGTTCAA,-0.143
25,CCTCGCTC,-0.0606

row,Sequence,PBM E-score
1,ACGTGACT,-0.0808
2,GACACGAC,-0.228
3,CGACCGCA,0.123
4,AAGATGAT,-0.11
5,AATGACTA,-0.17
6,AGCTGTAG,-0.188
7,ATGTGGGG,-0.138
8,GGTAGAAC,0.121
9,ACATTGGT,-0.229
10,GCCCCCAA,-0.234
11,GAGGTGGC,-0.143
12,ACTATAAG,0.173
13,TTATTAAA,0.129
14,CTCATGCA,-0.13
15,GGCATGCC,0.226
16,GATTGATA,-0.13
17,AAAGACCT,-0.0221
18,AGATTCGA,-0.131
19,AGTAGCCA,-0.303
20,ATTTTCTC,0.0576
21,CATGCTGC,-0.138
22,CTGATAGA,-0.0917
23,AAGGAAAG,0.0346
24,CCCTTATA,-0.00682
25,CTCAAGTC,-0.221

row,Sequence,PBM E-score
1,AACGGGGC,0.294
2,ATAGGACC,0.31
3,AATATGGT,0.156
4,AAACGCCA,-0.046
5,CTTGTGAA,-0.198
6,AACGTCAA,-0.237
7,CGTAGTCC,0.0487
8,AAGGTGCA,-0.216
9,AGCCAGGA,-0.212
10,ACATTCAT,-0.103
11,CGGTGGTC,0.26
12,ACCAGCAG,-0.388
13,CACTCTAC,-0.159
14,TCAAACCA,-0.0934
15,ATCGGGCA,0.17
16,TGCAACAA,-0.083
17,GGCTCACC,-0.102
18,GCGGAGCC,0.237
19,GTATTAGA,-0.0314
20,ATAAGATG,-0.303
21,CATGCTAG,-0.111
22,ATACCACC,0.334
23,CATATGTC,0.06
24,GTCGACTA,-0.16
25,CTTGCTCC,-0.0642

row,Sequence,PBM E-score
1,GGTTCTAC,0.2
2,CTCTATCC,-0.0198
3,GCTCAAAA,0.0351
4,ACTTGGGA,-0.122
5,AATTCAAG,-0.204
6,CGTAAGGA,-0.216
7,GTGACGTA,-0.0779
8,AGAGTTCG,-0.0267
9,AGTTCCAG,-0.0255
10,CCTCTCCC,-0.291
11,ATCGATGA,-0.128
12,AGTGCCGC,0.381
13,ACCTACGA,-0.127
14,CCAGTCGC,0.0868
15,CACTGATA,-0.348
16,CCTCAGAA,-0.233
17,CAGGCCTA,-0.00222
18,GATGGGAA,-0.259
19,CCCCAACA,0.00066
20,GCACAAAC,-0.032
21,CCTGAAGG,-0.14
22,CGCCCCGA,0.328
23,AGGTTAAG,-0.146
24,AGATGAAA,-0.155
25,CTAGCGAA,-0.301

row,Sequence,PBM E-score
1,GGCGAGCC,-0.0995
2,CGGTAACG,0.188
3,CGGCCTAA,0.313
4,CAGACGCA,-0.139
5,CATCGATC,-0.125
6,GATGGGCA,-0.207
7,TAATGCTA,-0.0856
8,ACAGTCCA,-0.357
9,CAAGTCAA,-0.204
10,ACAAGAGG,-0.151
11,GGTTCCTA,0.0107
12,CCGCGGCA,0.367
13,AGCTTGAG,0.0597
14,CAACCATG,-0.0567
15,GTGGCTCA,-0.168
16,ATCTCCAG,0.0194
17,AAAGCACC,0.311
18,CGTATGAG,-0.0006
19,ATCTGTGA,-0.0742
20,CGCTTCCC,0.0549
21,TAGTAGCA,-0.132
22,AAAATCTG,-0.104
23,CCATGGGA,-0.145
24,AGCCCCAT,-0.192
25,CTTCCGTC,0.299

row,Sequence,PBM E-score
1,CATGAGAA,-0.121
2,CCTGGGTA,0.00168
3,CCATTCAC,-0.116
4,AAAACCCT,-0.074
5,CCGGGGCA,0.17
6,CCCATTAC,-0.0791
7,GGGCCGAC,0.355
8,GCTGCTAC,-0.0302
9,GATACTGA,-0.0741
10,CGTTTACA,-0.0275
11,CCATCTAG,-0.0948
12,CTTGCTAA,-0.203
13,ACTCGGCG,0.08
14,AGTGAAGG,-0.0931
15,ACCAAGAT,0.0698
16,ACCGTATG,0.0965
17,CCACCAAA,-0.117
18,CAGGTAAA,0.0729
19,CACACCGA,0.344
